# Experimental data: PubChem BioAssay (NCI)
# A structure can be active in one record and inactive in another.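 The test compound was applied at a single concentration to cells in 96-well plates for 48 hours, and percent growth was recorded.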 For part of its entries the source gives two or more results. The other results are left out here. How the source made its calls: active means growth percent below 10; inactive means the rest. The source may hold further records. The screen tested this drug many times, at its own concentration, as given; each value is one run. Signs of the kind (2×) say how often a value occurs here.
# Experiments:
# BT-549 breast = experiment: NCI-60 one-dose screen, 48 h (100 = growth as untreated, 0 = no growth, -100 = all killed); settings: 25 µM
# MDA-MB-435 melanoma = experiment: as above; settings: 0.25 µM
smiles,measurement,setting,value
COc1cccc2c1C(=O)c1c(O)c3c(c(O)c1C2=O)C[C@@](O)(C(=O)CO)C[C@@H]3OC1CC(N)C(O)C(C)O1 (stereo not given in full),growth,BT-549 breast; runs of 1993,"active: -72.7, -57.6, -68.4, -72.2, -71, -84.5, -14.3, -51.7, -81.8, -80.4, -85.7, -86.7, -79.7, -99.3, -63, -55.2, -39.1, -93.5, -80, -72.1, -76.4, -92.9, -68.7, -80.9, -96.9, -90.9, -70.2, -90.7, -62, -59.3, -1.77, -77.1, -48.6, -97.1, -69.3, -67.8%"
same,growth,BT-549 breast; runs of 1994,"active: -86.2, -54.8, -82.7, -77.6, -88.8, -84.4, -73.3, -85.3, -84, -91.1, -50.5, -54.3, -94.7, -96, -21.4, -90.3, -32.6, -57.4, -90.4, -53.9, -80.6, -63.5, -49.2, -35.4% and inactive: 71.9%"
same,growth,BT-549 breast; runs of 1995,"active: -19.5, -76.8, -92.1, -16.3, -99, -58.2, -69.7, -61.2, -83.7, -74.2, -62.5, -44.1 (2×), -69, -73.6, -36.7, -39.6, -24.2, -33.2, -84.2, -47.9, -51.9, -42.5, -44.6, -80.1, -69.2, -25.2, -50.5, -67.2, -85.5, -62.1, -90.5, -63, -67.8, -77.5, -84.9, -78, -61, -83.6%"
same,growth,BT-549 breast; runs of 1996,"active: -59.2, -29.8, -4.29, -27.2, -41.9, -63.3, -30.9, -33.9, -30.8, -61.7, -48.8, -64, -66, -67.4, -94.2, -46.2, -27.1, -37.7, -53.2, -63.8, -51.6, -26.6, -62.3, -46.3 (2×), -23.1, -35, -66.1, -73.6, -71.7, -84.2, -44.1, -39.8, -91.8, -55.9, -79.8, -40.8, -30.2, -81.8, 5.16, -59.5, -33.1, -52, -43.1, -82.2, -36.1, -68.2, -58, -74, -43.5, -49.8% and inactive: 109%"
same,growth,BT-549 breast; runs of 1997,"active: -48.9, -30.6, -32.9, -37.8, -57.9, 0.0854, -51.3, -80, -45, -73, -85.2, -67.8, -68.6, -49.1, -65.9, -73.1, -26.6, -76.7, -73.4, -32.8, -75.7, -59.3, -54.9, -55.7, -42.8, -55.4, -47.2, -74.1, -26.8, -53.4, -64.1, -43.1, -29.9, -58.6, -60.9, -64.8, 1.97, -68.9, -64.5, -80.6, -63.7% and inactive: 14.6%"
same,growth,BT-549 breast; runs of 1998,"active: -58.5, -74.3, -31.2, -75.4, -62.3, -38.7, -29.3, -73.2, -68.5, -56.8, -76.5, -82.7, -18.8, -85.4, -90.3, -76.7, -48.2, -80.3, -58.9, -44.1, -40.5, -32.8, -70.3, -67.4, -45.3%"
same,growth,BT-549 breast; runs of 1999,"active: -74, -92.6, -39.8, -51.8, -76.1, -63.8, -96.1, 6.4, -49.2, -37.8, -80.9, -100, -8.08, -10.2, -29.4%"
same,growth,BT-549 breast; runs of 2000,"active: -100, -98.7, -35.4, -93.1%"
same,growth,MDA-MB-435 melanoma; runs of 2006,"inactive: 63.2%, 62.7%"
same,growth,MDA-MB-435 melanoma; runs of 2007,"inactive: 51.1, 61.1, 64.6, 61.7, 67.2, 65.1, 63.2 (2×), 64.9, 70.6, 68.4, 79.1, 74.5, 67.3, 70.5, 73.6, 82.1, 75.2, 81.9, 84.3, 70.4, 80.3, 83.2, 86.6, 78.3, 78.7, 75.3, 74.6, 77.4, 80.9, 63.5, 66.6, 60, 64.2, 62.3, 82.2, 68.6%"
same,growth,MDA-MB-435 melanoma; runs of 2008,"inactive: 74.5, 53.6, 55.1, 61.4, 76.7 (2×), 73.6, 74, 73.5, 70.7, 67.7, 74.1, 71.8, 62.2 (2×), 68.1, 33.5, 61, 61.7, 48.5, 52.5, 56.9, 49.5, 43, 49.3, 53.5, 49.4, 62.3, 111, 60.6, 48.3, 47.1, 40.6, 60, 40.3, 45.2, 48.6, 51.5, 41, 53.4, 58.7, 66.6, 71, 76.3, 82.9, 61.5, 69, 50.7, 48.9, 57.7, 54, 66, 65.2, 62.9, 59.2%"
same,growth,MDA-MB-435 melanoma; runs of 2009,"inactive: 60.7 (2×), 58.8, 47.3, 59.9, 53 (2×), 65.7 (2×), 61, 65.2 (3×), 59.6, 62.1, 55.1, 57 (2×), 61.8 (2×), 67.5, 66.9, 58.6 (2×), 68, 60.3, 68.3, 58.9 (2×), 50.9, 60.8, 62.3, 61.2, 59.1, 48.2, 65, 80.3, 56.3, 69.4, 64, 64.4 (2×), 61.3 (2×), 75.6, 76, 58.7, 55.7, 65.1 (2×), 52.7, 64.6, 59.5, 56.9, 63.7, 94.4, 73.4, 60.1, 74.1, 57.3, 67.1, 72%"
same,growth,MDA-MB-435 melanoma; runs of 2010,"inactive: 65.4, 74.9, 57.6 (2×), 64.9, 55.3, 73.7, 73.4, 58.4, 62.1, 63.4, 57.9, 71.2, 60, 57.4, 61.4, 77.5, 52.4, 65.7 (2×), 53.3, 65.1, 56.8, 63, 62.5 (2×), 68.7, 66.6, 57, 45.8, 59.6, 49.3, 62.8, 59.8, 61.3, 59.7, 56.3, 59.4, 62.6, 68, 69.7, 61.8, 66.9, 67.2, 60.8 (2×), 62.9, 58.7%"
same,growth,MDA-MB-435 melanoma; runs of 2011,"inactive: 65.1, 60.8, 61.6, 60.7, 67.3, 76.6, 58.3, 67.2, 71.7, 61.9, 59.8 (2×), 61.1 (2×), 59.3, 70.1, 72.8 (2×), 68.1, 68.6, 69.1, 73.8, 68.2, 71.4, 62.9, 69, 53.7, 54.8, 61.3, 55 (2×), 56.9 (2×), 53.4, 53.8, 58.7 (2×), 57.9, 57.3, 58.5, 56.1, 52.1, 57.8, 59.5, 61.5, 49, 55.7, 65.5, 62.1, 71.1, 64.2, 70, 61.8%"
same,growth,MDA-MB-435 melanoma; runs of 2012,"inactive: 62.5 (2×), 51.6, 58.3, 51.3, 72.3, 67.6, 55.2, 53, 54.7, 52, 54.8 (2×), 53.7, 54.2, 49.6, 51.4, 52.2, 50.5, 52.9 (2×), 51.8, 49.2, 58.8, 65.1, 62.8, 61.9, 57 (2×), 66.9, 61.1, 64.6, 56.9 (2×), 56, 59.8, 50.6, 62.7, 60.1, 57.6 (2×), 57.7, 63.4, 59.5, 67.7, 69.7, 66.7, 71.7, 69.6, 66.3, 73, 73.6, 70.8, 70.7, 70.5, 48.2, 60, 58.7, 48.1, 57.5, 54.1, 45.7, 53.3, 61.7%"
